Data on 69 sequences can be found in the supplement of paper PMC5655136.

Read counts after selection give these values, which scatter widely.
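Also: shRNA barcodes quantified by deep sequencing of PCR amplicons from cellular DNA, counts expressed as percent of each subpool, ratio averaged over two biological duplicates.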

In the data set the test system is NB7. Nature of the data set: fold depletion of shRNA, plasmid library share / infected cells without Dox share (9 days) (ratio); higher = more depleted after infection (more toxic, leaky expression from a Tet-inducible vector; NB7 is a neuroblastoma line without caspase-8). The following applies: shRNA pool: CD95 ORF + CD95 3'UTR + Venus libraries.
GGCATCAACTTCATGGAAAGA: the “fold depletion of shRNA” value worked out at 1.35.

CAGGAGAGTATTACTAGAGCT: the “fold depletion of shRNA” value was found to be 0.859. The result for TGGCTCAAAACTACCTACTTC reads 4.56; that for TATTTCAATTGTGAATTCACA, 0.966. The result for TGCTAAGTACCCAAATAGGAG reads 1.94; that for CCAGCAACACCAAGTGCAAAG, 0.637; that for GCAGATACCTGGAACCACCTA, 4.84. To GGGTGAAGAGAAAGGAAGTAC belongs 1.54; to CATCTAACATATGATTCTGTA, 0.795; to GCTTAGAAGTGGAAATAAACT, 0.887. Regarding AAGAATGGTGTCAATGAAGCC, the “fold depletion of shRNA” value is 0.629. For AGATTTTACCATATTTCTAAA, the “fold depletion of shRNA” value is 0.684. To TCTGGATTTAGGAATTGCTCT belongs 1.43; to AATAATGTCCCATGTAAAACC, 2.13; to GTTTAAATATCTTTGAAAGTT, 0.699. For CGAGCTGGACGGCGACGTAAA, the “fold depletion of shRNA” value stood at 0.609. With CCAAGGGATTGGAATTGAGGA, the “fold depletion of shRNA” value worked out at 0.543.

As for AAGCTGGAGTACAACTACAAC, the “fold depletion of shRNA” value was 1.69. To CCCCAAGTTTCTAAGATTTAA belongs 0.62; to CAAGTCCGCCATGCCCGAAGG, 0.953. The result for TGAAGCAGATACCTGGAACCA reads 1.46; that for ACCTACTTCTTTCTCAGGCAT, 1.48. The result for ATGGACGAGCTGTACAAGTAA reads 1.29; that for GCCCATCCTGGTCGAGCTGGA, 0.916. With AGTACACAGACAAAGCCCATT, the “fold depletion of shRNA” value turned out to be 1.05. The result for ACTGAACAGGCAGGCCACTTT reads 0.343; that for CTGGGGCACAAGCTGGAGTAC, 0.945. To CATGTTTGCAATCAAAGATGA belongs 0.81; to AATAAACTGCACCCGGACCCA, 1.55. With CAACCACTACCTGAGCTACCA, the “fold depletion of shRNA” value was 2.17. To GCCCTGAGCAAAGACCCCAAC belongs 0.888; to ATCTAACTTGGGGTGGCTTTG, 1.29; to ATATGTGTATGCATTTTACTG, 2.25. Consider TGGTGTCATATTATACAATAT, for which the “fold depletion of shRNA” value is 1.93. To ACCCCAACGAGAAGCGCGATC belongs 2.1; to CTCCTACCTCTGGTTCTTACG, 2.46; to CTGCCATAAGCCCTGTCCTCC, 0.624.

As for AAACCAAACTTTTTTTGTAAC, the “fold depletion of shRNA” value was 1.23.

Regarding AGAACGGCATCAAGGCCAACT, the “fold depletion of shRNA” value amounted to 5.76. The result for AGAAGAACGGCATCAAGGCCA reads 1.76; that for TGGAGATACTAACTGCTCTCA, 3.01. To TCAAAACTACCTACTTCTTTC belongs 2.84; to TTAATGCCCAAGTGACTGACA, 4.69. To GAGGGCGAGGGCGATGCCACC belongs 1.87; to TTAGAAGTGGAAATAAACTGC, 1.15; to TAAACGGCCACAAGTTCAGCG, 1.2. For ATGGAATCATCAAGGAATGCA, the “fold depletion of shRNA” value was found to be 1.8. The result for TGTCTTCTTCTTTTGCCAATT reads 1.02; that for GTGTCCGGCGAGGGCGAGGGC, 0.782. To TTGCCTCTAAATTACCTCTGA belongs 2.93; to GTCTTCTTCTTTTGCCAATTC, 2.61; to TGAACACTGTGACCCTTGCAC, 2.37. To GCTTATACATAGCAATGGTAA belongs 0.995. As for CATCAAGGCCAACTTCAAGAT, the “fold depletion of shRNA” value is 1.06. The result for TGCCTCTAAATTACCTCTGAT reads 1.45; that for AAACATGGAAATATCACCAAA, 0.912. To AGGAAAACCAAGGTTCTCATG belongs 1.01; to TAAGAAATAATATTTATATTT, 1.06; to AAGCTGCCCGTGCCCTGGCCC, 0.477. The result for CAGAACACCCCCATCGGCGAC reads 1.56.

With CGGCCTGCAGTGCTTCGCCCG, the “fold depletion of shRNA” value was found to be 0.792. The result for ACATGTCATGAACCCATGTTT reads 2.2; that for ATCTCATGATTCTGCCTCCAA, 1.35; that for TCATGGAAAGAAAGAAGCGTA, 0.81.

For GCGAGGAGCTGTTCACCGGGG, the “fold depletion of shRNA” value stood at 0.982.

Turning to ACAGTTTATTGGTGTCATATT, the “fold depletion of shRNA” value came out at 1.17. To TTGCCCCTTGTGTTTGGAATT belongs 0.741; to GGATGTTTAAAATCTAGTTGG, 1.81; to CCAGACTGCGTGCCCTGCCAA, 0.785.
